Reference: a collection of fitness landscapes (doi:10.1016/j.celrep.2020.107928)
In all, about 81,000 sequences were measured (“one-hybrid fitness for binding NBS DNA”: median about -0.1, highest 2% from about 0.36 on). The list shows a part of the results.

B1: Caulobacter ParB omega fusion; a variant is named by its letters at X, in order, B8GW30 (parent)
chain: MESVVVGEPGMSEGRRGLGRGLSALLGEVDAAPAQAPGEQLGGSREAPIEILQRNPDQPRRTFREEDLEDLSNSIREKGVLQPILVRPSPDTAGEYQIVAGERAWRAAQRAGLKTVPIMVRELDDLAVLEIGIIENVQRADLNVLEEALSYKVLMEKFERTQENIAQTIGKSXSHVANXMRLLXLPDEVQSYLVSGELTAXHARAIAAAADPVALAKQIIEGGLSVRETEALARKAPNLSAGKSKGGRPPRVKDTDTQALESDLSSVLGLDVSIDHRGSTGTLTITYATLEQLDDLCNRLTRGI

Variants of: B1
Test: one-hybrid fitness for binding NBS DNA (the Noc-binding site; scaled: cognate 1, non-cognate 0); higher = stronger binding
Conditions: with NBS DNA site
How it was run: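 Caulobacter ParB libraries with four specificity codons randomised were screened by bacterial one-hybrid selection in the E. coli USO strain, using a HIS3 reporter whose site lies 19 bp from the promoter. Selection ran for 48 hours at 37°C on M9 lacking histidine, with 0.1 mM IPTG and 5 mM 3-AT. Plasmids were Illumina-sequenced before and after selection, three replicate libraries were pooled, and variants with under 10 reads were dropped. Fitness is the log change in each variant's read ratio to wild type, rescaled against the cognate and non-cognate sites.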

one-hybrid fitness for binding NBS DNA, 0.241:
RRDQ

one-hybrid fitness for binding NBS DNA, 0.609:
QRCA

one-hybrid fitness for binding NBS DNA, 0.495:
QTNH

one-hybrid fitness for binding NBS DNA, 0.22:
PFRR

one-hybrid fitness for binding NBS DNA, 0.377:
YRKR

one-hybrid fitness for binding NBS DNA, 0.261:
TMKR

one-hybrid fitness for binding NBS DNA, 0.43:
QKYS

one-hybrid fitness for binding NBS DNA, 0.31:
QYER

one-hybrid fitness for binding NBS DNA, 0.393:
QCAA

one-hybrid fitness for binding NBS DNA, 0.357:
DTTL

one-hybrid fitness for binding NBS DNA, ≤ 0.2:
YLGT
GPSR
HIIF
KSPV
WHRV
VFER
LAYS
ATNG
FDPS
VMKA
HREG
QFNK
FRAW
PHER
TTDP
FFTE
TQHM
AVPP
QHVY
CAVK
VWAL
AAYR
NVGM
DRAG
LVHI
MEVG
IRRW
NSCS
AIVR
DNWS
QDNH
GTLG
IRYA
ETLR
HFGY
LTVG
CHCI
PVCD
CQKF
PLHT
MSNG
TQLC
GRFL
NHIC
EDLF
TSPE
GVAY
FLVS
VPAL
VTNV
CRGW
INYR
PQYS
QCTQ
ILLN
YPYA
KVDT
YIMS
PYRW
SLYG
MDGS
ARRF
KKAY
YGGR
NRNY
MDTG
CKED
CTKL
GSTQ
YEER
DPNA
PRHS
WHAF
KMTD
THHN
PMMR
AIQC
CEQR
LVLR
LDNL
YEAT
SGWR
WIRS
YQSG
GHTC
VQYL
TPMY
MYDR
TIAW
PFNT
SWAD
AVTW
RWSA
SRCI
YLIF
PELK
TNSM
TGIL
CRRI
VRYA
RMYD
YLMA
ESGV
QYWH
ASNP
AWLA
RQHF
ELMI
VVPW
SCVQ
GWDN
FTGY
QSLN
EIRL
SDKD
QILL
LCSD
CGAQ
NYKP
KRCF
YQNG
TAVT
REKC
AISD
HWVQ
HDAV
QPIT
AKCC
HHDR
LDTM
VKFR
IQRY
NESL
KNNG
VQAC
MHRW
QQNK
DFQS
SHRK
PATC
VCPW
PVAW
LMMG
PVMF
CTTL
NHNR
QMYG
QILP
AGLR
VPYT
YSHC
AYRK
LTTA
AEIR
KMAG
NAHP
AQLF
LCKG
ACPI
IQSG
VISN
CSES
IAHV
LFCC
KRML
QPDV
PDQG
QDTG
GAGV
PKPH
DMNM
QANL
QWDL
YDHT
GILR
GPAS
QHCK
RPVT
DFTR
QDYG
CNVT
ETYY
PWLC
KENH
CKHR
RNHE
SSIG
WQMS
YMFS
QHVL
YSMW
SCWE
YDKV
GMCN
PSYE
PASA
RTQM
GGLH
GCLR
ANMM
YFNG
VKPT
NQSL
TTCT
FKSW
GRTD
IPRV
SHFP
VGGP
HRWC
LPKG
TQGF
TLCH
VSGL
TALQ
PEVK
TPHL
CSTT
TWHK
TEFV
TCRL
IASL
TNAI
THDE
RFVF
PNTR
RREK
PMCG
RGKK
MQAC
KRPQ
LAQS
RPMH
GPGS
SWPI
TTVC
WWSC
KQNS
LRRP
TRWN
FLSA
RGPE
ARKL
CGVR
TPEN
WVTS
CANM
AATS
ITTW
REMS
RLYY
PGCM
EAQG
HSRN
IKKC
SKHR
KYQK
IDVM
TLSD
AKDG
TRDG
MPQG
YKPY
QPAA
KADW
IPYG
FRMS
AALV
SESG
EWQK
KLNN
CVAD
THLK
GNCR
QPPD
CNSG
QVGW
RQSK
QDNF
NGNR
HHTP
SNFT
PEAW
VRRW
PAFT
NGRD
LNVR
PIPI
VWNS
AHNS
LHCG
LSVI
MCLL
YSTY

one-hybrid fitness for binding NBS DNA, 0.28:
QKHA

one-hybrid fitness for binding NBS DNA, 0.56:
QTKN
